Hit rate of the full screen: of about 360,000 compounds, about 16,000 (4.4%) were called active. This list was built around the results that the source calls inconclusive (neither active nor inactive); the mix of calls is not that of the screen. The call rests on the fitted dose curve; in most records, active means well fitted inhibition curve with a large enough effect; inconclusive means small, poorly fitted or top-dose-only effect; inactive means no such curve, though single readings can be large or run the other way. Potencies beside an inconclusive call are fits to weak or partial responses and may not hold up.
The molecules below were run against Bromodomain adjacent to zinc finger domain protein 2B (Homo sapiens) (UniProt Q9UIF8) (assay: qHTS Assay for Inhibitors of BAZ2B). Settings: AlphaScreen BAZ2B-H3K14Ac peptide displacement; activity change, negative = inhibition: at 114 µM (top of the series).
Method in brief: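 Multi-concentration screen (max 110 uM) measuring displacement of acetylated histone H3 peptide from BAZ2B by AlphaScreen, using 50 nM protein, 50 nM peptide and 10 ug/mL streptavidin donor plus Ni-chelate acceptor beads.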
Further: nearly all actives have a fitted effect of over 60% in size.
On the % scale 0 is the no-effect control and ±100 the full control effect; potency means the concentration at half of the fitted maximal effect; tags describe the fitted curve by direction and shape.

Sequence of UniProt Q9UIF8 (Q9UIF8 whole entry, looked up, the tested form may be a part): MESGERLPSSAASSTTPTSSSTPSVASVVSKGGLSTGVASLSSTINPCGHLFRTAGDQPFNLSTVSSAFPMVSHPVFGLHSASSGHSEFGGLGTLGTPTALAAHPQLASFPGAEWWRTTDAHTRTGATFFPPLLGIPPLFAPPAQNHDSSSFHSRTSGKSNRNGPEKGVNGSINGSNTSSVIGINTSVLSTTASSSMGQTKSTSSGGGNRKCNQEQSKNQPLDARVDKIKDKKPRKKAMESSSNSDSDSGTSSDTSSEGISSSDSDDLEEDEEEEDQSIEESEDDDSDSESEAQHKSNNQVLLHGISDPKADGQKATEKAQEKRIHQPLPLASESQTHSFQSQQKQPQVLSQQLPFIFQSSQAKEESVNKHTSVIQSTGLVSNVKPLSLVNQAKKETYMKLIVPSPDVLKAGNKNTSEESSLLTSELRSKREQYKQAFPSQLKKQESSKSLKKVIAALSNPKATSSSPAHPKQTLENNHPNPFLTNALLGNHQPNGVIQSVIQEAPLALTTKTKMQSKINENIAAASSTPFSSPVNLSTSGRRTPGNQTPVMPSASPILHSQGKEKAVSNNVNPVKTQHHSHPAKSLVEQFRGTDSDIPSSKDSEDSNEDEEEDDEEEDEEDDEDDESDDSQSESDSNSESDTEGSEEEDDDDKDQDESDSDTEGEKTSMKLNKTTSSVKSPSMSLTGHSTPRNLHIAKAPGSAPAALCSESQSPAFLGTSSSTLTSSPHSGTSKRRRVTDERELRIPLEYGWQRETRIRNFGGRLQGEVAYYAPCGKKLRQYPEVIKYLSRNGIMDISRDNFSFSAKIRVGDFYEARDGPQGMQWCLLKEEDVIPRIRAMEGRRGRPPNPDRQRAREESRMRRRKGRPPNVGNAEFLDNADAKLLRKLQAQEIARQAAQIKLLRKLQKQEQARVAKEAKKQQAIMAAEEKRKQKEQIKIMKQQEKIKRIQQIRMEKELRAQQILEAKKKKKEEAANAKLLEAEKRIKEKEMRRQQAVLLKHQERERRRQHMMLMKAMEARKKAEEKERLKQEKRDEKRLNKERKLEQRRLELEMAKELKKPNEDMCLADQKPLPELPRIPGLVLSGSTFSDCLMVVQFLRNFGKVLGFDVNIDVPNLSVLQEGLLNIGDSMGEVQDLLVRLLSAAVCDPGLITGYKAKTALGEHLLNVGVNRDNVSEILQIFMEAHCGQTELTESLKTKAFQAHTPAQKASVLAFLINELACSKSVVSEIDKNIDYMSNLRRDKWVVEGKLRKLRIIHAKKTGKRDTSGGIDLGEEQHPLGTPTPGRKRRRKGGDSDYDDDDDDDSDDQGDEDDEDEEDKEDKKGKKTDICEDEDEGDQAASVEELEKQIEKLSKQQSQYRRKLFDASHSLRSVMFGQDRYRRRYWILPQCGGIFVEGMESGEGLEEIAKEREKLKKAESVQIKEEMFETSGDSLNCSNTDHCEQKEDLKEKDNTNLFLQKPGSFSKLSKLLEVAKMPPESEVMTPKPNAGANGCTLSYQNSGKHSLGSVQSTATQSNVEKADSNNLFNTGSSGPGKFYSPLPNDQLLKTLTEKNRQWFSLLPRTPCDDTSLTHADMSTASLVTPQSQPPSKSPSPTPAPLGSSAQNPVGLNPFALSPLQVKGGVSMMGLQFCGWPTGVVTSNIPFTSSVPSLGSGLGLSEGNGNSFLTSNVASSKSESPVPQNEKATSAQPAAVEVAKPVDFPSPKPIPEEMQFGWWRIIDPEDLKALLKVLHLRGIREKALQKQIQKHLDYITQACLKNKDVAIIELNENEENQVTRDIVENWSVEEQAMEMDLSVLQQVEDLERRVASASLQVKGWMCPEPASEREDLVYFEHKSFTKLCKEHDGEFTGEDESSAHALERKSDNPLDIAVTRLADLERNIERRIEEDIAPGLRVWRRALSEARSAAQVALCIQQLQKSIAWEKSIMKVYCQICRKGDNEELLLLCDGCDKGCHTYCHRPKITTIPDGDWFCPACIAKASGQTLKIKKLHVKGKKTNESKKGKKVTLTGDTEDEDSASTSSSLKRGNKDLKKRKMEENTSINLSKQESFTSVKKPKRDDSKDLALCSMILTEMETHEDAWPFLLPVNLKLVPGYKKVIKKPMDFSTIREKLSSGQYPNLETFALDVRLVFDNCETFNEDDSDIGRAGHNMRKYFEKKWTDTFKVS

| SMILES | Potency | activity change, negative = inhibition |
| --- | --- | --- |
| CC(C)(O)C1Cc2cc(/C=C/C(=O)O)c(O)cc2O1 (centres undefined) | active: 20 µM | – |
| NS(=O)(=O)c1ccc(NC(=S)NC2CCCCCC2)cc1 | – | inactive: -1.68% |
| Cc1ccc(-c2c3c(nc4sc(C(N)=O)c(N)c24)CCCC3)o1 | inconclusive: 79.4 µM [inhibitor, single point] | – |
| CC1=C(C(=O)OC2CCCCC2)C(c2ccc(C)o2)C2=C(CCCC2=O)N1 (centres undefined) | inconclusive: 89.1 µM [inhibitor, single point] | – |
| COc1cc(NC(=O)c2cc(S(=O)(=O)N3CCC(C)CC3)cn2C)cc(OC)c1OC | – | inactive: 4.67% |
| CN(C)c1cccc(C(=O)OC(C(=O)Nc2ccc([N+](=O)[O-])cc2Br)c2ccccc2)c1 (centres undefined) | inconclusive: 7.08 µM [inhibitor, full curve, poor fit] | – |
| Cc1cc(C)nc(N/N=C2/CCSc3ccc(F)cc32)n1 | – | inactive: -18.2% |
| COc1cc2nc(=S)n3[nH]c(CCn4nc(C)cc4C)nc3c2cc1OC | – | inactive: 4.6% |
| Cc1ccsc1CN(C)C(=O)c1ccc(Oc2ccccc2)cc1 | – | inactive: 66.6% |
| COc1ccc(CCN2C(=O)N(c3ccc(C)cc3)C(=O)C2CC(=O)Nc2ccc(OC)cc2)cc1 (centres undefined) | – | inactive: -8.12% |
| Cc1cccc(C=Nc2ccc3c4c(cccc24)CC3)c1O | inconclusive: 44.7 µM [inhibitor, partial curve] | – |
| CSCCC(N=C1NS(=O)(=O)c2ccccc21)C(=O)NCCc1ccccc1 (centres undefined) | – | inactive: 4.27% |
| Cc1ccc(OCCN2CCN(CC(O)Cn3c4ccccc4c4ccccc43)CC2)cc1 (centres undefined) | active: 20 µM | – |
| COc1ccc(/C=C2/C(=O)N(c3ccccc3)N=C2C)cc1Br | active: 12.6 µM | – |
| CC(C)C(=O)Nc1cccc(NC(=S)NC(=O)c2ccc(Cl)cc2)c1 | – | inactive: -28.3% |
| O=C(CN1CCN(S(=O)(=O)c2ccc(Br)cc2)CC1)N/N=C/c1ccc(Br)s1 | inconclusive: 15.8 µM [inhibitor, full curve, poor fit] | – |
| Cc1ccccc1Nc1nnc(SCC(=O)NCc2ccco2)s1 | inconclusive: 50.1 µM [inhibitor, partial curve] | – |
| COc1cccc(NC(=O)CN(C)C(=O)c2ccc(N3CCCCC3)c([N+](=O)[O-])c2)c1 | inconclusive: 89.1 µM [inhibitor, single point] | – |
| Fc1ccc(C[n+]2csc3ccccc32)cc1 | active: 56.2 µM | – |
| COCCn1c(=S)[nH]c2cc(C(=O)NCCCN3CCOCC3)ccc2c1=O | inconclusive: 89.1 µM [inhibitor, single point] | – |
| COc1ccc(OC)c(Nc2nc(N)nc(CCl)n2)c1 | inconclusive: 79.4 µM [inhibitor, single point] | – |
| O=C(O)CC1=C(Nc2ccccc2)C(=O)N(c2ccccc2)C1c1ccc(Br)cc1 (centres undefined) | inconclusive: 79.4 µM [inhibitor, single point] | – |
| Cc1noc(Cn2c(=O)c3ccccc3n(CC(=O)Nc3ccc(Cl)cc3)c2=O)n1 | – | inactive: -0.0574% |
| O=C1C=CC(=O)N1c1ccc(OC(F)F)cc1 | inconclusive: 100 µM [inhibitor, single point] | – |
| O=C(O)c1cc(O)c2c(c1)C(=O)c1cccc(O)c1C2=O | active: 50.1 µM | – |

| SMILES | Potency | activity change, negative = inhibition |
| --- | --- | --- |
| COc1ccc(-c2nc3ccc(C)cn3c2NCc2ccccc2)cc1SC1CCCCC1 | active: 50.1 µM | – |
| COc1ccc(S(=O)(=O)N2CCN(Cc3cc(OC)c(O)c(OC)c3)CC2)cc1 | active: 50.1 µM | – |
| Cc1cc(C)c(S(=O)(=O)N2CCOC2CNC(=O)C(=O)NCCCn2ccnc2)c(C)c1 (centres undefined) | active: 12.6 µM | – |
| CCCC(=O)Nc1cc(-c2nc3cccnc3s2)ccc1C | inconclusive: 44.7 µM [inhibitor, partial curve] | – |
| O=C(Nc1ncc([N+](=O)[O-])s1)c1cccc([N+](=O)[O-])c1 | – | inactive: -24.7% |
| COc1ccc(CN2CCN(CCCc3ccccc3)CC2)c(OC)c1 | active: 31.6 µM | – |
| Cc1ccc(-n2cc(CNCCN3CCOC3=O)c(-c3cccc(C)c3)n2)cc1 | inconclusive: 79.4 µM [inhibitor, single point] | – |
| Cc1ccc(/C=N/Nc2nncc(-c3ccccc3)n2)o1 | – | inactive: -22.1% |
| Cc1ccc(C)c(N2CCN(C(=O)CCCCCn3c(=O)[nH]c4ccccc4c3=O)CC2)c1 | – | inactive: -38.9% |
| CN(C)S(=O)(=O)c1ccc(NC(=O)Cn2c(-c3ccccc3)noc2=O)cc1 | inconclusive: 100 µM [inhibitor, single point] | – |
| CCN1CCCC(Sc2nc3c([nH]2)c(=S)n(C)c(=O)n3C)C1 (centres undefined) | – | inactive: -3.07% |
| Cc1ccc(-c2nnc(Nc3ccc(S(N)(=O)=O)cc3)c3ccccc23)cc1S(=O)(=O)N1CCOCC1 | – | inactive: -9.67% |
| COc1cc(C(=O)NNC(=O)COc2ccccc2Cl)ccc1OCC(=O)N1CCOCC1 | – | inactive: 6.33% |
| N#CC(C#N)=C1C=CC=CN1/C(=C\c1ccco1)C(=O)c1ccc(Br)cc1 | inconclusive: 15.8 µM [inhibitor, full curve] | – |
| CCCCN1CC(=O)N2[C@H]3c4cc(C)ccc4OC[C@@H]3[C@H](C(=O)OCC)[C@]2(C)C1=O | – | inactive: 4.94% |
| COc1ccccc1C1c2[nH]c3ccccc3c2C[C@H]2C(=O)N(C3CCN(Cc4ccccc4)CC3)CC(=O)N12 (some centres undefined) | inconclusive: 31.6 µM [inhibitor, full curve] | – |
| COC(=O)C1=C(C)N(Cc2ccccc2)C(=NCCc2c[nH]c3ccccc23)N[C@H]1c1ccccc1 | active: 56.2 µM | – |
| O=C(COC(=O)CCc1nc2ccccc2c(=O)[nH]1)NC(c1ccccc1)c1ccccc1 | – | inactive: 4.62% |
| CCC(=O)C1CCCN(C(=O)c2ccc(OC)c(OC3CCN(C(C)=O)CC3)c2)C1 (centres undefined) | – | inactive: -4.84% |
| Cc1ccn(CCC(=O)O)n1 | – | inactive: 2.46% |
| O=C1CN=C(Nc2ccccc2Cl)N1Cc1ccc2c(c1)OCO2 | – | inactive: -8.49% |
| O=C(Cn1c(N2CCN(C/C=C/c3ccccc3)CC2)nc2ccccc21)c1ccccc1 | inconclusive: 35.5 µM [inhibitor, partial curve, poor fit] | – |
| Fc1ccccc1-c1n[nH]c(=S)n1/N=C/c1c[nH]c2ccccc12 | inconclusive: 39.8 µM [inhibitor, partial curve] | – |
| Cc1ccc(-c2ccc(/C=N/N3C(=O)C4C5C=CC(CC5)C4C3=O)o2)c([N+](=O)[O-])c1 (centres undefined) | inconclusive: 44.7 µM [inhibitor, partial curve] | – |

Reference: PubChem BioAssay AID504333 (National Center for Advancing Translational Sciences (NCATS), 2011)
